Where two headings read alike, the source gives them in different places.
Tests used:
[1] = target: IgE binding to FcεRIα (Homo sapiens, UniProt P01854); assay: Inhibition of binding of IgE to FcεRIα by surface plasmon resonance
Experimental: Anti-human IgE antibodies were generated using UCB proprietary core antibody discovery technology. The isolated V-region genes were sub cloned in the human IgG1 Fab format for subsequent expression and purification. The Fab was transiently expressed in CHO cells and purified by Protein G affinity chromatography followed by size exclusion chromatography. The ability of the Fab to inhibit the binding of IgE (Uniprot reference P01854) to FcεRIα (Uniprot reference P12319) was determined by surface plasmon resonance.

[2] = target: IgE-Fc (Homo sapiens, UniProt P01854, E170C); assay: Intramolecular FRET of labelled IgE-Fc (unbending) on titration of anti-IgE Fab; format: biochemical
Experimental: Intramolecular FRET was carried out using IgE-Fc(E289C)_BirA (IgE-Fc with the BirA recognition motif added to the C-terminus and biotinylaated according to the manufacturer's instructions (Avidity)) labeled with thiol reactive terbium chelate (Invitrogen) and streptavidin labeled with amine reactive Alexa488 (Invitrogen), each according to the manufacturer's instructions. Terbium labeled IgE-Fc and Alexa488 labeled streptavidin were mixed in equi-molar ratios (FAC 25 nM) with anti-IgE Fab titrated from 30 uM in PBS and incubated for 120 minutes at room temperature. FRET was measured on an Analyst LJL-HT (excitation 200 nm, emission 485 and 520 nm, each at 10 nm slit width) and plotted as a function of Fab concentration.
In envisaging the mechanism of formation of the Fab^1|IgE-Fc|Fab^2 complex, the question remains: does binding of Fab^1 trap IgE-Fc in an extended conformation or can it still flex between the extended and bent structures? These two alternatives can be discriminated using intra-molecular FRET (Förster Resonance Energy Transfer). […] Here, we titrated Fab into IgE-Fc labelled with donor and acceptor fluorophores in the Cε2 and Cε4 domains respectively, to observe whether unbending (detected by a decrease in the FRET signal) occurs upon engagement of Fab^1 or Fab^2.
Further antibodies were generated which were able to inhibit IgE binding to its receptor FcεRIα. Of these, six were all able to unbend IgE to different degrees as determined by FRET analysis conducted using the method described in Example 2 above for Fab7. The affinities of these six antibodies were also determined (Table 3).

[3] = target: T1, IgE-Fc (Homo sapiens, UniProt P01854, N146Q/N252Q); assay: ITC of Fab binding to IgE-Fc
T1 construct: made in house
Experimental: Experiments were carried out using a Microcal iTC200 calorimeter (GE Healthcare) at 20° C. in PBS buffer pH 7.4. Depending on the final ratio required, 25-30 μM of protein was used in the calorimeter cell and 10-20 fold higher concentrations were used in the syringe. The number and volume of injections were varied as appropriate. Heats of dilution were subtracted from the data before analysis. […] Analyses were carried out using MicroCal Origin, using a 1:1 binding model when IgE-Fc or Fcε3-4 was titrated into Fab, or a sequential 1:1 binding model when Fab was titrated into IgE-Fc or Fcε3-4.
One way to establish experimentally that IgE-Fc adopts an extended structure as it flips between two bent conformations, is to determine the number of Fab binding sites that are available for binding: if rigidly and exclusively bent, only one site will initially be accessible, but if it can flip, then two sites are accessible. We therefore studied the interaction between Fab and IgE-Fc by isothermal titration calorimetry (ITC) and compared with the binding to Fcε3-4 which, lacking the Cε2 domains, always has two accessible sites.

T1 sequence (P01854 106-428 isoform P01854-1 N146Q/N252Q limits assumed): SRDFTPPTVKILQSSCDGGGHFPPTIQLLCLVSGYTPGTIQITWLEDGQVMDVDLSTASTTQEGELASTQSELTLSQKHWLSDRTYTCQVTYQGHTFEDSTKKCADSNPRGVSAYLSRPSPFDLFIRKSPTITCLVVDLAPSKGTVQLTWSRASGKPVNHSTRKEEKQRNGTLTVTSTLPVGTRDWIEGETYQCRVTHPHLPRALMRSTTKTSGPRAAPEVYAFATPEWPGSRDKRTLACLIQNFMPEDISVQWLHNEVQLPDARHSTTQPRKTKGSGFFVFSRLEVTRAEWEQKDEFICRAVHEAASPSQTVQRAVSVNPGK
IgE-Fc (Homo sapiens, UniProt P01854, E170C), sequence (P01854 106-428 isoform P01854-1 E170C limits assumed): as the sequence (P01854 106-428 isoform P01854-1 N146Q/N252Q limits assumed) above, with Q41N, E65C, Q147N counted along it
IgE binding to FcεRIα, sequence (P01854 1-428 isoform P01854-1): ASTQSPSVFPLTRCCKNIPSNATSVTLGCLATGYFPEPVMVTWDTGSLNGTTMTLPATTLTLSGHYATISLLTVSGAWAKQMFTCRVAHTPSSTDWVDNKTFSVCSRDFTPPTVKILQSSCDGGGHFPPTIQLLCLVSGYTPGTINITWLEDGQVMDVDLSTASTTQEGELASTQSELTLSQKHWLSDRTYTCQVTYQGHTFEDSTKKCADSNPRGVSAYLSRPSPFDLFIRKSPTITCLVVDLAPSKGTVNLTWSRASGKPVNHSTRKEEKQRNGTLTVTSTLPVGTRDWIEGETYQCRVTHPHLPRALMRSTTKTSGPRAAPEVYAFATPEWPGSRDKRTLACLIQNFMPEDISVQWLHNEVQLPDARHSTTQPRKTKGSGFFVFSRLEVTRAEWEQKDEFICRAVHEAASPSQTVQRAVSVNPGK

B1: Fab7: Fab fragment of a novel IgG binding human IgE-Fc and inhibiting its interaction with FcεRIα; SEQ ID NO: 2 and 4, FIG. 14 (antibody)
heavy: MEWIWIFLFLLSVTTGVHSQVQLQQSGPGLVKPSQTLSLTCGISGDSVSSNSAAWNWLRQSPSRGLEWLGRTYYRSKWYNDYAVSMKSRITINPDTSRNQFSLQLNSVTPEDTAVYYCARDGEISYDYYYYGMDVWGRGTLVTVSSASTKGPSVFPLAPSSKSTSGGTAALGCLVKDYFPEPVTVSWNSGALTSGVHTFPAVLQSSGLYSLSSVVTVPSSSLGTQTYICNVNHKPSNTKVDKKVEPKSC
light: MDWSPLLLTLLAHCTGSWAQSVLTQPPSASGTPGQRVTISCSGSSSNIGNNGVNWYQQVPGKPPKLLIYYDDLLPSGVSDRFSGSKSGTSASLAISGLQSEDEADYYCEAWDDSLDGVVFGGGTKLTVLGQPKAAPSVTLFPPSSEELQANKATLVCLISDFYPGAVTVAWKADSSPVKAGVETTTPSKQSNNKYAASSYLSLTPEQWKSHRSYSCQVTHEGSTVEKTVAPTECS
modifications: FAB7 Heavy Chain Amino Acid; FAB7 Light Chain Polynucleotide
inhibition of IgE binding to FcεRIα [1]: achieves inhibition of this interaction
normalised FRET mean ([2]; [Fab] 0.152 nM, [Fab]/[Fc] 0.00608): 1
normalised FRET mean ([2]; [Fab] 0.45 nM, [Fab]/[Fc] 0.018): 0.2
normalised FRET mean ([2]; [Fab] 1.37 nM, [Fab]/[Fc] 0.0548): 1.55
normalised FRET mean ([2]; [Fab] 4.4 nM, [Fab]/[Fc] 0.176): 0.1
normalised FRET mean ([2]; [Fab] 12.3 nM, [Fab]/[Fc] 0.492): 2
normalised FRET mean ([2]; [Fab] 37.03 nM, [Fab]/[Fc] 1.4812): 9.675
normalised FRET mean ([2]; [Fab] 111 nM, [Fab]/[Fc] 4.44): 28.775
normalised FRET mean ([2]; [Fab] 333 nM, [Fab]/[Fc] 13.32): 39.275
normalised FRET mean ([2]; [Fab] 1000 nM, [Fab]/[Fc] 40): 43.375
normalised FRET mean ([2]; [Fab] 3000 nM, [Fab]/[Fc] 120, IgE-Fc 25 nM, 120 minutes room temperature): 41.05
unbending of IgE-Fc detected by FRET ([2]; in words): decrease in FRET clearly occurred only upon binding of Fab^2
Kd ([3]; 2Fab|1IgE-Fc, Fab titrated into IgE-Fc, sequential model, second Fab (2:1), read-out: Kd ITC): 1500 nM
Kd ([3]; Fab titrated into IgE-Fc, stoichiometry Fab:IgE-Fc 1:1, read-out: Kd): 76 nM
Kd ([3]; IgE-Fc titrated into Fab, read-out: Kd): 70 nM

Source: patent publication US10048253B2, “Method for identifying compounds of therapeutic interest” (UCB PHARMA S.A., priority 2012, dated 2018)
